According to patent US12123010B2, “Plants having increased tolerance to herbicides” (BASF SE, priority 2017, dated 2024):

Test system: Transgenic T2 or T3 Soybean plants harbouring PPO inhibitor tolerance trait and Jake non transgenic
Assay: Soybean greenhouse post spray, injury score 7 DAT
Assay type: in vivo
Protocol: Soybean cv Jake is transformed as previously described by Siminszky et al., Phytochem Rev. 5:445-458 (2006). After regeneration, transformants are transplanted to soil in small pots, placed in growth chambers (16 hr day/8 hr night; 25° C. day/23° C. night; 65% relative humidity; 130-150 microE m-2 s-1) and subsequently tested for the presence of the T-DNA via Taqman analysis. After a few weeks, healthy, transgenic positive, single copy events are transplanted to larger pots and allowed to grow in the growth chamber. An optimal shoot for cutting is about 3-4 inches tall, with at least two nodes present. Each cutting is taken from the original transformant (mother plant) and dipped into rooting hormone powder (indole-3-butyric acid, IBA). The cutting is then placed in oasis wedges inside a bio-dome. The mother plant is taken to maturity in the greenhouse and harvested for seed. Wild type cuttings are also taken simultaneously to serve as negative controls. The cuttings are kept in the bio-dome for 5-7 days and then transplanted to 3 inch pots and then acclimated in the growth chamber for two more days. Subsequently, the cuttings are transferred to the greenhouse, acclimated for approximately 4 days prior to spray. […] Herbicide injury evaluations are taken at 2, 7, 14 and 21 days after treatment.
Transgenic T2 or T3 Soybean plants harbouring PPO inhibitor tolerance trait, were sprayed post in the greenhouse with the indicated amount of uracilpyridine+1% (v/v) MSO. Evaluation performed 7 Days After Treatment (DAT) and shown as injury (0-9) relative to non-transgenic treated plants. Injury Scale: 0-9, 0=no imjury, 9=maximum injury. Note: segregating lines.

Question: CCOC(=O)COc1ncccc1Oc1cc(-n2c(=O)cc(C(F)(F)F)n(C)c2=O)c(F)cc1Cl [Uracilpyridine 1, ethyl 2-[[3-[2-chloro-4-fluoro-5-[3-methyl-2,6-dioxo-4-(trifluoromethyl)pyrimiclin-1-yl]phenoxy]-2-pyridyl]oxy]acetate] was tested. Which “injury (0-9)” value ([…], 25 g/ha + 1% MSO, individual plants, segregating lines) did it give?
Answer: Its value is 1 (Minimal injury, only a few patches of leaf injury or chlorosis.).

Question: And the “injury (0-9)” value (soybean Jake non transgenic, 25 g/ha + 1% MSO)?
Answer: Its value is 9 (Plant is dead.).

Question: And the “injury (0-9)” value (soybean Jake non transgenic, 50 g/ha + 1% MSO)?
Answer: The value was 9 (Plant is dead.).

Question: What about the “injury (0-9)” value (soybean Jake non transgenic, 100 g/ha + 1% MSO) of the same compound?
Answer: Its value is 9 (Plant is dead.).

Question: What about the “injury (0-9)” value (soybean Jake non transgenic, 200 g/ha + 1% MSO) of the same compound?
Answer: The value was 9 (Plant is dead.).
